Source: PubChem BioAssay AID1468 (National Center for Advancing Translational Sciences (NCATS), 2008)
Among all 280,000 compounds or so, about 1,100 (0.39%) were called active. Inconclusive means that the source gave no clear call. Such entries were picked first, then a sample of the others. Calls follow the shape of the dose curve; as a rule, active = well fitted inhibition curve with a large enough effect; inconclusive = small, poorly fitted or top-dose-only effect, or effect the other way; inactive = flat fitted curve, though single readings scatter. No potency is given beside an inconclusive call; the fits are too rough.

The molecules below were run against Microtubule-associated protein tau (Homo sapiens) (UniProt P10636) (assay: qHTS for Inhibitors of Tau Fibril Formation, Fluorescence Polarization). Details: K18 P301L tau heparin fibrillization, Alexa594 FP, 6 h; series mostly up to 57.7 µM.
Outline: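 Recombinant K18 P301L […], labeled with Alexa 594 at 0.24 uM over 15 uM unlabeled; heparin inducer 20 uM final; 37 C, 6 hr; FP endpoint.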
Also: nearly all actives have a fitted effect of over 55% in size.
Potency is read from the fitted curve at half-maximal effect; tags tell the direction and shape of the fitted curve.

Sequence of UniProt P10636 (P10636 whole entry, looked up): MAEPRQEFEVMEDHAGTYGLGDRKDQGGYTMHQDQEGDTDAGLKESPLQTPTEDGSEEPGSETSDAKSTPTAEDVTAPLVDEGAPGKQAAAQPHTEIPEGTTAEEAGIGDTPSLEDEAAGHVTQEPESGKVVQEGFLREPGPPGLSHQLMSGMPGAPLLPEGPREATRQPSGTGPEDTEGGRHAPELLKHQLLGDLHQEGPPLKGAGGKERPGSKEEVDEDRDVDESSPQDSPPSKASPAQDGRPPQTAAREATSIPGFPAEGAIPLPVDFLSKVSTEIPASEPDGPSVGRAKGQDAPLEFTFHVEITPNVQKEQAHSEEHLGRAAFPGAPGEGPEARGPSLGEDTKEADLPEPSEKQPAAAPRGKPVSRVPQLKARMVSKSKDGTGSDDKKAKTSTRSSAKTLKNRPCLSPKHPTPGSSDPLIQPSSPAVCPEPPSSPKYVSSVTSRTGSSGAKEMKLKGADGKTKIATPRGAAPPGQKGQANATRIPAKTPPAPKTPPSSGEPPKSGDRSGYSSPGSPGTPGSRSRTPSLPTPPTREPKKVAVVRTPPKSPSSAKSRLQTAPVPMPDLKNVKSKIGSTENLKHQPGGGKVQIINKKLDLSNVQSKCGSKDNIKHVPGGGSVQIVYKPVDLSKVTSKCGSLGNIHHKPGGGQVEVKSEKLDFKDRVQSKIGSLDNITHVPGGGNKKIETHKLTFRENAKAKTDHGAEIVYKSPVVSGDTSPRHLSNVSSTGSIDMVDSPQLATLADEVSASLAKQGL

Row | Compound | Potency
1 | CCN1CCN(c2cc(C)c3cc(NC(=O)c4cncc(Br)c4)ccc3n2)CC1 | inconclusive [activator, full curve]
2 | O=C(Oc1oc(-c2ccco2)nc1C=Nc1ccccc1)c1ccoc1 | inactive
3 | CC1CCN(S(=O)(=O)c2ccc3nc(Nc4ccc(C#N)cc4)ccc3c2)CC1 | active: 14.1 µM
4 | CCc1ccc(NC2=NCC(=O)N2Cc2ccc3c(c2)OCO3)cc1 | inconclusive [activator, partial curve]
5 | CC(=O)CSc1nsc(SCC(C)=O)c1C#N | inconclusive [inhibitor, partial curve]
6 | CCN1C(=O)/C(=c2\o/c(=C3\C=Cc4ccccc4N3CC)c(=O)n2CC)SC1=S | inactive
7 | O=C(COC(=O)Cc1ccsc1)Nc1ccc(Cl)c(S(=O)(=O)N2CCOCC2)c1 | inactive
8 | CC(C)OC(=O)CCC(=O)Nc1ccc(F)cc1 | inconclusive [inhibitor, full curve, poor fit]
9 | COc1ccc(OC)c(NC(=O)N2c3ccccc3Sc3ccccc32)c1 | inactive
10 | COc1ccc(NC(=O)C2CC(=O)N/C(=N/N=C/c3ccccc3)S2)cc1 (stereo unspecified) | inconclusive [inhibitor, single point]
11 | COc1cccc2oc(-c3ccco3)cc(=O)c12 | inactive
12 | CSc1cccc(NC(=O)Cc2ccccc2[N+](=O)[O-])c1 | inconclusive [inhibitor, single point]
13 | CCCCn1c(NC(=O)c2ccc(Br)o2)c(S(=O)(=O)c2ccccc2)c2nc3ccccc3nc21 | inconclusive [inhibitor, partial curve]
14 | CCOc1ccc(CCNC(=O)Cn2nnc(-c3ccc(C(F)(F)F)cc3)n2)cc1OCC | inactive
15 | O=C(COC(=O)[C@H](Cc1ccccc1)NC(=O)c1ccco1)NC(c1ccccc1)c1ccccc1 | inactive
16 | Cn1cc(CCCC(=O)NCc2ccccc2Cl)c2ccccc21 | inactive
17 | CCOC(=O)c1c(NC(=O)CSc2nc(-c3ccccc3)cc(C(F)(F)F)n2)sc(C)c1C | inactive
18 | O=C(Nc1cc(S(=O)(=O)N2CCCCC2)ccc1N1CCCCC1)c1ccncc1 | inactive
19 | CCCNC(=O)COC(=O)c1ccc(S(=O)(=O)N2CCCC2)cc1 | inconclusive [inhibitor, partial curve, poor fit]
20 | CCOc1ccc(NC(=O)CSc2nc3[nH]ncc3c(=O)n2-c2ccccc2OC)cc1 | inactive
21 | CCC1(O)CC2CN(CCc3c([nH]c4ccccc34)[C@@](C(=O)OC)(c3cc4c(cc3OC)N(C=O)C3[C@]45CCN4CC=C[C@@](CC)([C@@H](OC(C)=O)[C@]3(O)C(=O)OC)[C@H]45)C2)C1 (stereo partly specified) | inconclusive [inhibitor, single point]
22 | Cc1ccccc1NC(=O)C1CCCN(S(=O)(=O)c2c(C)noc2C)C1 (stereo unspecified) | inactive
23 | COc1ccccc1Nc1nc(NCc2ccco2)c2ccccc2n1 | inconclusive [inhibitor, partial curve]

Row | Compound | Potency
24 | COCCNCCCOc1ccc(C(C)(C)c2ccccc2)cc1 | inactive
25 | CN(C(=O)COc1ccc(C(C)(C)C)cc1)C1CCS(=O)(=O)C1 (stereo unspecified) | inconclusive [inhibitor, single point]
26 | CCOc1cc(N2CCOCC2)c(OCC)cc1NC(C)C(=O)N1CCC(C)CC1 (stereo unspecified) | inconclusive [inhibitor, single point]
27 | CCC(=O)n1nc(-c2ccc(Cl)cc2)nc1SC | inconclusive [inhibitor, single point]
28 | CCOC(=O)CSc1nc2cc(C(=O)N3CCC(C(N)=O)CC3)ccc2c(=O)n1-c1ccccc1 | inactive
29 | O=C(Nc1ccc(F)cc1Cl)C1Cc2ccccc2N1C(=O)c1ccccc1 (stereo unspecified) | inactive
30 | COC(=O)c1ccc(NC(=O)c2cn(-c3ccccc3)nc2-c2ccncc2)cc1 | inconclusive [inhibitor, partial curve]
31 | O=C(COC(=O)CSc1ccc2ccccc2c1)NC1CCCC1 | inconclusive [inhibitor, full curve]
32 | O=C(Nc1ccc(Cl)cc1Cl)NC1CCN(S(=O)(=O)c2ccc(F)cc2)CC1 | active: 25.1 µM
33 | O=C(O)/C=C/c1ccccc1Oc1ccc(Cl)cc1Cl | inconclusive [activator, full curve, poor fit]
34 | O=C(N/N=C/C(Br)=C/c1ccccc1)c1cnccn1 | inactive
35 | O=C(Nc1ncc(Cc2ccccc2Cl)s1)c1ccc2c(c1)CC(c1ccccc1)OC2=O (stereo unspecified) | inconclusive [inhibitor, partial curve, poor fit]
36 | Cc1ccc(NC(=O)Cn2c(=O)n(CC(=O)NCCc3ccccc3)c(=O)c3ccccc32)cc1 | inconclusive [inhibitor, partial curve, poor fit]
37 | NC(=O)CSCc1nc2ccccc2s1 | inactive
38 | CCOC(=O)c1sc(NC(=O)c2cc(-c3ccc(C)cc3)nc3ccccc23)c(C#N)c1C | inconclusive [activator, single point]
39 | CCCCN(CC)CCCNC(=O)c1sc2nc3n(c(=O)c2c1C)CCCCC3 | inconclusive [inhibitor, full curve]
40 | COc1ccc(OC)c(NC(=O)N2CCC3(CC2)Oc2ccccc2C(=O)N3Cc2ccccc2F)c1 | inconclusive [activator, partial curve]
41 | O=C(Nc1ccc(Br)cc1)c1cc(S(=O)(=O)N2CCc3ccccc32)ccc1F | inconclusive [inhibitor, partial curve]
42 | COc1ccc(-c2nc(-c3ccccc3)no2)c(OC)c1 | inconclusive [inhibitor, partial curve]
43 | Cc1ccc(S(=O)(=O)c2nnn3c2nc(NC2CCCCC2)c2sccc23)cc1C | inconclusive [inhibitor, partial curve]
44 | COC(=O)Cn1c(=O)c(C)nc2ccccc21 | inactive
45 | Cc1c(C(=O)Nc2ccccc2F)sc2nc3n(c(=O)c12)CCC3 | inactive
46 | C/C(=N\Nc1cccc2cccnc12)c1ccc[nH]1 | inactive
